Measurements as given in a compilation of properties of binary mixtures (doi:10.1021/acs.jced.5b00216).
The densities may have been worked out from excess volumes.

Assay: xn = mol fraction of the nth substance listed
Details: 100 kPa

CC(C)NC(C)C + CC(C)CO
mass density [kg/m3]
Details | 293.15 K | 298.15 K | 303.15 K | 308.15 K | 313.15 K
x1 = 0.0559 | 799.4 | 795.4 | 791.4 | 787.3 | 783.2
x1 = 0.1015 | 797.3 | 793.2 | 789 | 784.9 | 780.7
x1 = 0.1519 | 794.8 | – | – | 782 | 777.7
x1 = 0.2069 | 791.4 | 787.1 | 782.7 | 778.3 | 773.8
x1 = 0.2516 | 788.4 | 784 | 779.5 | 775 | 770.5
x1 = 0.3055 | – | 779.9 | 775.4 | 770.8 | 766.2
x1 = 0.3944 | 777.1 | 772.4 | 767.7 | 763.1 | –
x1 = 0.4988 | 767.4 | 762.6 | – | 753.1 | 748.3
x1 = 0.6017 | 757.2 | 752.4 | 747.6 | 742.8 | –
x1 = 0.7131 | 745.7 | – | 736.1 | 731.2 | 726.4
x1 = 0.8018 | – | 731.9 | – | 722.3 | 717.4
x1 = 0.865 | 730.1 | 725.3 | 720.5 | 715.6 | 710.7
x1 = 0.9062 | 726.1 | – | 716.4 | 711.5 | 706.6
x1 = 0.9423 | 722.4 | 717.6 | – | 707.8 | 702.9
x1 = 1 | – | – | – | 701.7 | 696.8

CC(C)CO + CC(C)NC(C)C
x2 = 0
Details | mass density [kg/m3]
293.15 K | 802
298.15 K | 798.1
303.15 K | 794.2
308.15 K | 790.2
313.15 K | 786.2

CC(C)O + CC(C)NC(C)C
x2 = 0
Details | mass density [kg/m3]
293.15 K | 785.3
298.15 K | 781.1
303.15 K | 776.8
313.15 K | 768

CCCCO + CC(C)NC(C)C
x2 = 0
Details | mass density [kg/m3]
303.15 K | 802.1
308.15 K | 798.2

CC(C)NC(C)C + CC(C)O
mass density [kg/m3]
Details | 293.15 K | 298.15 K | 303.15 K | 308.15 K | 313.15 K
x1 = 0.0499 | 784.4 | 780 | – | 771.1 | 766.5
x1 = 0.1033 | 781.7 | – | 772.7 | 768.1 | 763.4
x1 = 0.1405 | 779.5 | 774.9 | – | 765.6 | 760.8
x1 = 0.2062 | 775.6 | – | 766.1 | – | 756.4
x1 = 0.2498 | 772.9 | 768.1 | 763.2 | 758.3 | –
x1 = 0.303 | 769.1 | 764.2 | 759.3 | 754.4 | 749.4
x1 = 0.4121 | 761.1 | 756.2 | – | 746.2 | –
x1 = 0.4955 | 754.7 | – | 744.7 | 739.7 | 734.6
x1 = 0.5984 | 746.7 | 741.7 | – | 731.7 | –
x1 = 0.6982 | 739 | 734.8 | – | 723.9 | 718.7
x1 = 0.7902 | – | – | – | 717.1 | 712
x1 = 0.8632 | – | 721.6 | 716.6 | 711.7 | –
x1 = 0.9067 | 723.3 | 718.4 | 713.5 | – | 703.6
x1 = 0.9459 | 720.4 | 715.6 | 710.7 | 705.7 | 700.8
x1 = 1 | 716.4 | 711.5 | 706.6 | 701.7 | 696.8

CC(C)NC(C)C + CCCCO
mass density [kg/m3]
Details | 293.15 K | 298.15 K | 303.15 K | 308.15 K | 313.15 K
x1 = 0.0499 | 807.1 | 803.1 | 799.2 | 795.2 | 791.1
x1 = 0.1095 | 804 | 799.9 | 795.8 | 791.7 | 787.5
x1 = 0.1542 | 801.2 | 797 | 792.8 | 788.6 | 784.4
x1 = 0.2062 | 797.7 | 793.4 | 789.1 | 784.8 | 780.4
x1 = 0.25 | 794.5 | 790.1 | 785.7 | 781.3 | –
x1 = 0.2969 | 790.8 | 786.4 | 781.9 | 777.4 | 772.9
x1 = 0.4059 | 780.7 | 776.1 | 771.5 | 766.9 | –
x1 = 0.5062 | – | 765.9 | 761.2 | 756.5 | 751.7
x1 = 0.6009 | 760.5 | 755.7 | 751 | – | 741.4
x1 = 0.7043 | 749.2 | 744.4 | 739.6 | 734.8 | 730
x1 = 0.8059 | 738.2 | 733.4 | 728.6 | 723.8 | 718.9
x1 = 0.8543 | 732.8 | 728 | 723.2 | 718.3 | 713.4
x1 = 0.8987 | – | 723 | 718.2 | 713.3 | 708.4
x1 = 0.9489 | 722.5 | – | 712.8 | 707.9 | 703
x1 = 1 | 716.4 | – | 706.6 | 701.7 | 696.8
